# Data published in PubChem BioAssay AID686979 (National Center for Advancing Translational Sciences (NCATS), 2013).
# Several values for one entry are separate records, joined by “and”; a condition that tells them apart may be missing. Equal values may be shown once. Screen size: about 420,000 compounds; about 50,000 (12%) were called active. The inconclusive results got no clear call from the source; some entries with a clear call stand among them for comparison. Calls come from the whole dose curve; as a rule, active = well fitted inhibition curve with a large enough effect; inconclusive = small, poorly fitted or top-dose-only effect; inactive = flat fitted curve, though single readings scatter. Where the call is inconclusive, the potency comes from a doubtful curve fit.
# Test: qHTS for Inhibitors of human tyrosyl-DNA phosphodiesterase 1 (TDP1): qHTS in cells in presence of CPT; note: nearly all actives have a fitted effect of over 55% in size
# Details: chicken DT40 Tdp1-/-;hTDP1 cells + 20 nM CPT, ATP luminescence, 48 h; activity change, negative = growth inhibition: at 46.2 µM (top of the series) unless noted
# How it was run: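 Chicken DT40 Tdp1-/- cells stably complemented with human TDP1 were seeded at 400 cells/well in medium containing 20 nM camptothecin, exposed to pin-transferred compounds, and grown at 37 °C for at least 48 hr. Viability was read as ATP luminescence.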
# % is set by controls: 0 for no effect and ±100 for the full control effect; potency is the fitted concentration of half-maximal effect; tags give direction and shape of the fitted curve.
SMILES,"activity change, negative = growth inhibition",Potency
O=C(CC1N=C(Cc2ccccc2)NNC1=O)N/N=C/c1ccc([N+](=O)[O-])cc1 (centres undefined),inactive: 16.5%,–
Cc1ccc(CNC(=O)CCCCn2c(=O)c3ccccc3n(Cc3c(C)cc(C)cc3C)c2=O)cc1,inactive: -1.25%,–
Cc1cc(/C=N/NC(=O)Cn2c3ccccc3c(=O)c3ccccc32)c(C)n1-c1ccc(Cl)cc1,–,"inconclusive: 11.6 µM [inhibitor, partial curve, poor fit]"
COC(=O)CNC(=O)C1CCCN1C(=O)CNC(=O)OC(C)(C)C (centres undefined),inactive: -12.1%,–
CCOCCCNC(=O)NC(C)c1c(-n2cccc2)sc2c1CCN(CC)C2 (centres undefined),–,active: 13 µM
Cc1cccc(NCc2cc(Cl)ccc2O)n1,inactive: -26.4%,–
Cn1cc(CN2CCC(C(=O)Nc3cccc(-c4cscn4)c3)CC2)cn1,inactive: -18.4%,–
Nc1ccccc1N=Nc1ccccc1N,inconclusive: -30.1% [inhibitor],–
CCCCOc1ccc(/C=N/NC(=O)c2csc(C)c2C)cc1,–,"inconclusive: 29.1 µM [inhibitor, single point]"
CC1CCCCN1C(=O)c1cccc(NC2=C(Cl)C(=O)N(Cc3ccccc3)C2=O)c1 (centres undefined),–,"inconclusive: 29.1 µM [inhibitor, single point]"
COc1ccc2[nH]c3c(NCCCOC(C)C)ncnc3c2c1,–,"inconclusive: 29.1 µM [inhibitor, single point]"
Cc1ccc(C(=O)N2CCN(c3ccc(NC(=O)c4ccc5c(c4)OCCO5)cc3)CC2)cc1,–,active: 16.4 µM
O=C(c1ccc(N2CCOCC2)c([N+](=O)[O-])c1)N1CCN(Cc2ccccc2)CC1,inactive: -29.1%,–
CCn1cc(/C=C(\NC(=O)c2cc(OC)c(OC)c(OC)c2)C(=O)N2CCOCC2)c2ccccc21,inactive: -3.14%,–
COc1ccc(OC)c(NC(=O)C2CCCN(S(=O)(=O)c3cccc4cccnc34)C2)c1 (centres undefined),–,"inconclusive: 25.9 µM [inhibitor, single point]"
C[C@]12C[C@H](O)[C@H]3[C@@H](CCC4=CC(=O)CC[C@@]43C)[C@@H]1CC[C@@H]2C(=O)CO,–,"inconclusive: 16.8 µM [inhibitor, partial curve, poor fit] and inconclusive: 5.8 µM [inhibitor, full curve]"
COc1cccc(NC(=O)CSC2=Nc3ccccc3N=C(c3ccc(F)cc3)C2)c1,–,active: 18.4 µM
O=C(c1ccc2c(c1)N(Cc1ccccc1F)C(=O)c1ccccc1S2(=O)=O)N1CCCCC1,–,"inconclusive: 23.1 µM [inhibitor, single point]"
O=C(Nc1cccc(Cl)c1N1CCCC1)c1ccco1,–,"inconclusive: 11.6 µM [inhibitor, partial curve]"
